From PubChem BioAssay AID624296 (National Center for Advancing Translational Sciences (NCATS), 2012)
Screen size: about 350,000 compounds; about 9,900 (2.8%) were called active. Inconclusive means that the source gave no clear call. Such entries were picked first, then a sample of the others. Calls come from the whole dose curve; as a rule, active = well fitted activation curve with a large enough effect; inconclusive = small, poorly fitted or top-dose-only effect; inactive = no such curve, though single readings can be large or run the other way. No potency is given beside an inconclusive call; the fits are too rough.

Assay: A quantitative high throughput screen for small molecules that induce DNA re-replication in MCF 10a normal breast cells. For activity, positive = re-replication: % of control where 0% means no effect. Note: nearly all actives have a fitted effect of over 50% in size.
Details: MCF 10A DNA re-replication, Hoechst nuclear intensity, 48 h; activity, positive = re-replication: at 46.1 µM (top of the series)
Potency is the fitted concentration of half-maximal effect; tags give direction and shape of the fitted curve.

Compound | activity, positive = re-replication | Potency
O=C1C2C3C=CC(C3=C(c3ccccc3)c3ccccc3)C2C(=O)N1CCO (centres undefined) | inactive: 3.32% | 
Cc1ccc(CNC(=O)Cn2cnc3cc([N+](=O)[O-])ccc3c2=O)cc1 |  | inconclusive [activator, partial curve, poor fit]
O=c1[nH]c(Nc2ccccc2)cc2cc(Br)ccc12 |  | inconclusive [activator, single point]
O=C(NC(=S)Nc1ncccn1)c1ccc(Cl)cc1Cl | inactive: 2.58% | 
CCc1ccc2oc(=O)cc(CN(C)Cc3ccccc3)c2c1 |  | inconclusive [activator, single point]
CCc1ccc(NC(=O)C(=O)c2ccccc2NC(C)=O)cc1 |  | inconclusive [activator, partial curve, poor fit]
Fc1cc2[nH]c(=S)[nH]c2c(Br)c1N1CCSCC1 | inactive: 8.84% | 
COc1ccc(S(=O)(=O)Nc2ccccc2C(=O)NCc2cccnc2)cc1C |  | inconclusive [activator, single point]
CN1CCC(N(C)C(=O)c2ccccc2F)CC1 | inactive: -0.132% | 
S=C(NCc1ccc(Cl)cc1Cl)NC1CCCCC1 |  | inconclusive [activator, single point]
COc1ccc(NC(=O)Nc2c(O)ccc3ccccc23)cc1 |  | inconclusive [activator, single point]
COc1cccc(-c2cc(C(=O)Nc3ccccc3)c3ccccc3n2)c1 |  | inconclusive [activator, full curve]
COc1ccc(OC)c(S(=O)(=O)N2CCN(c3ccccc3)CC2)c1 |  | inconclusive [activator, partial curve, poor fit]
COc1ccc2nc(N=NC3=C(O)CC(C)(C)CC3=O)sc2c1 | inactive: 23.8% | 
Oc1c(Br)cc(CNC2CCCCC2)cc1Br |  | inconclusive [activator, partial curve]
CC1(C)Cc2c(C#N)c(SCC(=O)c3ccccc3)nc(N3CCOCC3)c2CO1 |  | inconclusive [activator, full curve, poor fit]
CC(C)OC(=O)CSc1nc(Cc2cccs2)nc2ccccc12 | inactive: 11.9% | 
Cc1ccc(OCc2cc(C(=O)NC(C)Cc3cccc(C)n3)no2)cn1 (centres undefined) |  | inconclusive [activator, single point]
CC(C)(C)OC(=O)[C@H](Cc1ccccc1)NC(=O)c1nc[nH]c1C(=O)NC1CCNCC1 |  | inconclusive [activator, full curve, poor fit]
COc1cc(NC(=O)CN2C(=O)NC(C)(c3ccccc3)C2=O)c(C)cc1[N+](=O)[O-] (centres undefined) | inactive: 17.1% | 
Cc1cccc(Nc2nc(NCCCN3CCOCC3)nc(N)c2[N+](=O)[O-])c1 |  | inconclusive [activator, single point]
Cc1ccc(Nc2nc(N)nc(CN3CCN(C(=O)c4ccco4)CC3)n2)cc1Cl |  | inconclusive [activator, partial curve, poor fit]

Compound | activity, positive = re-replication | Potency
CCOC(=O)c1c(NC(C)=O)sc2c(O)c(Br)cc(Br)c12 |  | inconclusive [activator, partial curve]
CCN(CC)CCN(CC(=O)Nc1c(C)cc(C)cc1C)C(=O)c1ccccc1 | inactive: 31.2% | 
CN(CCN(C)C(=O)c1[nH]cnc1C(=O)Nc1ccccc1)C(=O)c1[nH]cnc1C(=O)Nc1ccccc1 |  | inconclusive [activator, partial curve, poor fit]
CCOC(=O)/C(=C\c1ccc([N+](=O)[O-])o1)NC(=O)c1ccccc1 |  | inconclusive [activator, partial curve, poor fit]
CCc1nnnn1-c1ccc([N+](=O)[O-])cc1C | inactive: -7.9% | 
Cc1cc(NC(=O)c2cc(S(=O)(=O)N3CCCCC3)ccc2C)n(-c2ccccn2)n1 |  | inconclusive [activator, full curve, poor fit]
Cc1cccc(C)c1NC(=S)NC(C)CCc1ccccc1 (centres undefined) | inactive: 3.77% | 
N/C(=N\OC(=O)C1CCCCC1)c1ccc(Br)cc1 |  | inconclusive [activator, single point]
CCN(CC)CCn1c2ccccc2c2nc3ccc([N+](=O)[O-])cc3cc21 |  | inconclusive [activator, partial curve, poor fit]
CCOc1cc(NC(=O)c2ccccc2[N+](=O)[O-])c(OCC)cc1NC(=O)CC(C)C | inactive: -4.33% | 
O=c1[nH]c(Cc2ccccn2)nc2scc(-c3ccccc3Cl)c12 |  | inconclusive [activator, partial curve, poor fit]
CCOC(=O)C1CCN(Cc2cnc(Oc3ccc(OC)cc3)s2)CC1 | inactive: 6.54% | 
O=C(CCl)NC(=O)NC12CC3CC(CC(C3)C1)C2 |  | inconclusive [activator, single point]
COCCn1c(C)cc(C(=O)CSc2nnc(C)s2)c1C |  | inconclusive [activator, single point]
C=CC[C@@H](CC(=O)NCCO)C(=O)N[C@@H](COC(=O)[C@@H](CC=C)Cc1ccc(F)cc1)Cc1c[nH]c2ccccc12 |  | inconclusive [activator, partial curve, poor fit]
NC(=O)c1sc2nc(-c3ccccc3)c3c(c2c1N)CCCC3 |  | active: 20.6 µM
COc1ccc2sc(N(CCCN(C)C)C(=O)c3ccc(S(=O)(=O)N4CCc5ccccc5C4)cc3)nc2c1 |  | inconclusive [activator, single point]
O=C1CCCC(O)=C1C=Nc1ccc(O)cc1 | inactive: 1.78% | 
COc1ccccc1C(=O)NNc1ncc(C)s1 |  | inconclusive [activator, single point]
O=C1NC(=S)S/C1=C\c1cc(Cl)ccc1Cl |  | inconclusive [activator, partial curve]
COc1ccc(-c2nonc2NC(=O)c2ccco2)cc1OC | inactive: -6.9% | 
CC(C)(C)c1ccc(OCCNC(=O)c2ncn[nH]2)cc1 |  | inconclusive [activator, partial curve, poor fit]
